Experimental data: PMC4336329 (PLoS ONE, 2015)
About 2,200 (0.71%) of roughly 310,000 compounds showed an effect of 50% or more. Effects have a minus sign here. This is one part of the list.

molecular target: human ether-à-go-go-related gene (hERG) potassium channel (human, UniProt Q12809); experiment: primary screen, population patch clamp on CHO cells stably expressing hERG
Sequence (Q12809 whole entry, looked up): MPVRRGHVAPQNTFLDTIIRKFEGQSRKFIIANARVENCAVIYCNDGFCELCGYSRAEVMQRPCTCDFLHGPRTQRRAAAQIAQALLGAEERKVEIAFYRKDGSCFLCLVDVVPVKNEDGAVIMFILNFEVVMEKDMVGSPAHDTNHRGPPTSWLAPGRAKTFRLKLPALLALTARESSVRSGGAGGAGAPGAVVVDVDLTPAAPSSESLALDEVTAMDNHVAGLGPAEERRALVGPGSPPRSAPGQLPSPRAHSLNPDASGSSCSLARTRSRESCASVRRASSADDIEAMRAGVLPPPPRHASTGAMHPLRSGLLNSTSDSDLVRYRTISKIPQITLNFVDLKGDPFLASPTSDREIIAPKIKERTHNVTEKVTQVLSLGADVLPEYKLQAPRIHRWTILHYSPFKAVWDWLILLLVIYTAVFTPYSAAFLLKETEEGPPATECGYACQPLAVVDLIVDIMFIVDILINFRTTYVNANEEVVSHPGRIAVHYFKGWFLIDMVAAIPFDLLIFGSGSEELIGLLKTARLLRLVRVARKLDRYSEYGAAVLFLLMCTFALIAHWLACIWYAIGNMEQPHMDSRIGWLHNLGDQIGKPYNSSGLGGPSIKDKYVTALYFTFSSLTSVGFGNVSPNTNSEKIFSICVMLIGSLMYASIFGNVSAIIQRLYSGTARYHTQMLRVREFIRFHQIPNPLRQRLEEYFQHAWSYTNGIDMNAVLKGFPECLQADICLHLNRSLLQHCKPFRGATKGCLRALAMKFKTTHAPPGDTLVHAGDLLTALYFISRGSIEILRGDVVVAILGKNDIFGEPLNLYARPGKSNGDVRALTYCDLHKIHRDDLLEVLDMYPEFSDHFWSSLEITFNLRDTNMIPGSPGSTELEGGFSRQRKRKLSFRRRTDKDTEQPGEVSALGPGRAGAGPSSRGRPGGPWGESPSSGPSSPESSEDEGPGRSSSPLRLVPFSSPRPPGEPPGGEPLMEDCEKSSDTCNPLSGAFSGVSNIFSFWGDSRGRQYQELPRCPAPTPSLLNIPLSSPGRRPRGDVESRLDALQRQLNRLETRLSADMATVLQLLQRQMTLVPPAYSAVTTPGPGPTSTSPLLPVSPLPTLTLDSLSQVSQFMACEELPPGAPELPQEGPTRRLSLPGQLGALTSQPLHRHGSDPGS

Compound | hERG current change (%, negative = inhibition) at 1uM [%]
COc1ccc(S(=O)(=O)N(CC(=O)N2CCN(c3ccccc3OC)CC2)c2ccccc2)cc1 | 2.74
O=C1CNC(=O)/C(=C\c2ccc(F)cc2)N1 | 13.7
CCN1C(=NCC(C)C)N[C@@H](CCc2ccccc2)[C@H](C(=O)NCC(C)C)[C@H]1C | -8.26
CC(C)NC(=O)CN1CCN(Cc2nc(-c3cccs3)no2)CC1 | 14.1
O=C(O)CN1C(=O)C2C3C=CC(C3)C2C1=O (centres unmarked) | 7.44
Cn1c(=O)c2sccc2n2c(CCCC(=O)NC3CCN(Cc4ccccc4)CC3)nnc12 | 13.2
Cc1c(C(=O)O)sc2c1c(=O)n(Cc1ccccc1)c(=O)n2C | 17.3
CC(=O)Oc1ccccc1/C=C/c1ccc2ccccc2[n+]1C.[I-] | 9.22
O=C(c1cc(-c2ccc(Br)cc2)nc2ccccc12)N1CCC1 | 11.1
CN1C(=O)CC(C(=O)O)SC1=Nc1cc(Cl)c(O)c(Cl)c1 (centres unmarked) | 5.3
CCOCC(O)CNc1ccccc1 (centres unmarked) | 16.2
CC(OC(=O)CCc1nc2ccccc2c(=O)[nH]1)C(=O)NCc1ccc2c(c1)OCO2 (centres unmarked) | 10.1
CC(=O)c1ccccc1NC(=O)COC(=O)c1cc(C)oc1C | -2.43
O=C(CC1S/C(=N/N=C/C=C/c2ccccc2)NC1=O)Nc1ccc(C(=O)O)cc1 (centres unmarked) | 8.7
COc1ccc(CCNC(=O)c2ccc(NC(=O)CC3SC(N4CCCC4)=NC3=O)cc2)cc1 (centres unmarked) | 10.5
O=C(COc1ccc(Cl)cc1Cl)N(C1CCCCC1)C1CCS(=O)(=O)C1 (centres unmarked) | 4.95
COc1ccc([C@]2(C(C)C)ON(c3ccccc3C(F)(F)F)C2=O)cc1 | 14.1
CC(C)(C)NC(=O)C(c1ccc(F)cc1)N(Cc1ccco1)C(=O)Cn1nnc(-c2cccs2)n1 (centres unmarked) | 13.5
O=C1CCC2CCCCC2(O)O1 (centres unmarked) | 9.04
O=C(Cn1cc2c(n1)CCCCC2)NCc1ccccc1 | -6.65
COC(=O)c1sccc1NC(=O)Cc1ccc(OC)cc1 | -0.194
CC1=C(C(=O)OCCOc2ccccc2)C(c2ccsc2)NC(=O)N1C (centres unmarked) | 11.6
Cn1c(SCC(=O)N2CCOCC2)nc(O)cc1=O | 11.9

Compound | hERG current change (%, negative = inhibition) at 1uM [%]
Cc1ccc(C)n1-c1ccc(C(=O)NCC2CCCO2)cc1 (centres unmarked) | 5.92
COc1cccc(CCNC(=O)C2CCC(=O)N(Cc3cccc(OC)c3)C2)c1 (centres unmarked) | 7.27
Cn1c(N)c(C(=O)NCc2ccccc2Cl)sc1=S | 16.9
O=C1CC(NCc2ccncc2)C(=O)N1c1ccc(Cl)cc1 (centres unmarked) | 14.3
S=C(c1ccc(-c2ccccc2)o1)N1CCCCC1 | 15.6
CCn1ncc(Br)c1C(=O)Nc1cc(C)cc(C)c1 | 10.9
Cc1[nH]c2ccc(F)cc2c(=O)c1SC(F)(F)C(F)C(F)(F)F (centres unmarked) | 6.01
COc1ccc(C(=O)N2CCC(C(=O)Nc3ccc(C)cc3)CC2)cc1 | -31.9
O=C1CCC(C(=O)O)N1 (centres unmarked) | 13
CCOC(=O)N1CCN(CC(=O)Nc2ccc(C)c(Br)c2)CC1.Cl | 3.62
COc1ccc2cc(-c3ccccc3F)ncc2c1 | 3.66
COc1ccc(NC(=O)N2CCCC2C(=O)NC23CC4CC(CC(C4)C2)C3)cc1 (centres unmarked) | 9.75
CN(C)S(=O)(=O)c1cccc(NC(=S)Nc2ccc(Cl)cc2Cl)c1 | 15.3
CCOC(=O)CSc1cc(C)nc(N)n1 | -4.82
O=C(CCC1CCCN(Cc2cccc3c2OCO3)C1)NCc1ccc(F)c(F)c1 (centres unmarked) | -31.1
CCOC(=O)CSc1cc(C(F)(F)F)nc(-c2ccccn2)n1 | -7.97
Cc1c(Br)c([N+](=O)[O-])nn1CCCC(=O)Nc1c(C)n(C)n(-c2ccccc2)c1=O | 13.4
COC(=O)c1cc(NC(=O)c2cc3ccccc3o2)cc(C(=O)OC)c1 | 13.4
O=C(NCCCc1ccc(F)cc1)C1CCC(=O)N(CC2CCCCC2)C1 (centres unmarked) | 4.59
COCC(=O)OCC(=O)Nc1ccc(Cl)cc1[N+](=O)[O-] | 14.3
Cc1ccc(C(=O)CSc2nnc(-c3cccs3)n2C)o1 | 7.9
CCOC(=O)C1CCN(CC(O)COCc2ccc3c(c2)OCO3)CC1.Cl (centres unmarked) | 1.96
Cc1cc(NC(=O)Cc2cc(F)cc(F)c2)no1 | 19.4

Compound | hERG current change (%, negative = inhibition) at 1uM [%]
COc1cc(OC)c(-c2sc(Nc3ccccc3)n[n+]2-c2ccc(F)cc2)cc1OC.[Cl-] | 8.76
OCC[C@@H]1C[C@@H](O)[C@H](O)[C@]2(CCc3ccccc3CO2)O1 | 17.4
C[C@H](NS(=O)(=O)c1ccccc1F)C(=O)OCC(=O)N1CCc2ccccc21 | 18.3
Clc1nnc(N2CCCCC2)c2ccccc12 | 2.42
COc1ccc(S(=O)(=O)N2CCN3CCCC3C2)cc1 (centres unmarked) | 17.3
O=C(N/C(=C\c1ccc(Br)cc1)C(=O)N1CCOCC1)c1ccc(Br)o1 | -15.3
CCN(c1cccc(C)c1)S(=O)(=O)c1cccc2nsnc12 | 14.4
Cc1ccc2c(Cl)cc(Cl)c(OCC(=O)N3CCOCC3)c2n1 | 3.29
CCOC(=O)c1cc(-c2ccccc2)nn1CCC#N | 4.87
CC(C)(C)C(=O)NC(=S)NNC(=O)c1ccncc1 | 16.2
CCN(CC)c1ccc(S(=O)(=O)N2CCCCC2)cc1NC(=O)CN1C(=O)NC2(CCCC2)C1=O | 7.63
CCN(CC)S(=O)(=O)c1ccc(NC(=O)c2nc3nc(C)cc(C)n3n2)cc1 | 6.45
Cc1ccc2nc(NC(=O)C3=NN(c4ccccc4)C(=O)CC3)sc2c1 | 16.7
Cc1ccc(CC(=O)Nc2cccnc2)cc1 | 14.2
COc1cc(Cl)ccc1OCc1cc(C(=O)N2CCN(C)CC2)no1 | 6.01
CCCCc1nc2ccccc2c(=O)n1-c1ccc(O)cc1 | 5.23
Cc1ccc(C)c(OCC(=O)NNC(=O)CSC(=S)N2CCCC2)c1 | 11.2
CC#CCN1c2ccccc2[C@]23C[C@@H](C(=O)OC)N(C(=O)NC4CCCCC4)C2=NC(C(=O)OC)=C(C(=O)OC)[C@H]13 | 14.6
Cc1cccc(C)c1NC(=S)N(CCN(C)C)C(C)c1ccccn1 (centres unmarked) | 9.46
CCOc1ccc(C(=O)NCC(c2cccs2)N(C)C)cc1 (centres unmarked) | -9.71
Cc1ccnc(NC(=O)CNC(=O)COc2ccccc2)c1 | 2.14
CCCOc1ccc(-c2nc(C#N)c(N3CCC(C(N)=O)CC3)o2)cc1 | 2.52
COc1ccc(Br)cc1C(=O)Nc1ccc(N2CCN(S(C)(=O)=O)CC2)cc1 | 10.5

Compound | hERG current change (%, negative = inhibition) at 1uM [%]
O=C(CSc1ncccn1)NCc1cccc(Cl)c1 | 5.65
Cn1cc(Br)c(C(=O)N/N=C/c2cc3ccccc3nc2Cl)n1 | 8.63
Cc1cc(NC(=O)Cn2ccc([N+](=O)[O-])n2)no1 | 16.2
CCCc1nnc(NC(=O)Cn2c(=O)sc3ccccc32)s1 | 7.77
COc1cc(-c2noc(C)c2C#Cc2ccccn2)cc(OC)c1OC | 13.6
CCCSc1nnc2nc3c(nn12)c1ccccc1n3C | 4.67
O=C(CSc1ncnc2nc[nH]c12)N1CCN(c2ccc(Cl)cc2)CC1 | 6.36
CCC1SC(CC)C(=O)N(CC(=O)Nc2ccc3c(c2)OCO3)C1=O (centres unmarked) | 10.2
CC(C)NC(=O)CCCN1C(=O)c2ccccc2Sc2ncccc21 | 21.2
Cl.O=C(CCN1CCC(c2ccccc2)C1)c1ccc2c(c1)OCCO2 (centres unmarked) | -25
O=C(COC(=O)CCc1c[nH]c(=O)[nH]1)Nc1ccccc1Cl | -0.63
CC(O)CNCc1ccc(Cl)cc1Cl.Cl (centres unmarked) | 14.1
O=C(/C=C/c1ccccc1)N/C(=C/c1ccccc1)C(=O)N1CCOCC1 | -15.8
O=C(Nc1ccncc1)c1cncc(Br)c1 | 12
CCCCn1c(N)c(N(CC(C)C)C(=O)c2ccc(F)c(S(=O)(=O)N3CCOCC3)c2)c(=O)[nH]c1=O | 3.21
COc1ccc(/C=N/NC(=O)CSc2nnc(CCCc3ccc(OC)c(C)c3)o2)cc1 | 6.57
CC(=O)Nc1ccc(OS(=O)(=O)c2c(C)cc(C)cc2C)cc1 | 3.73
N#Cc1c(NC(=O)C2CC(c3ccccc3Cl)=NO2)sc2c1CCC2 (centres unmarked) | 14.9
O=C(NC1CCCCCC1)c1cc(-c2ccccn2)nc2ccccc12 | 9.3
CN(CC(=O)Nc1cccc(F)c1)C(=O)c1ccc(C2SCCS2)cc1 | 18.9
O=C(O)COc1ccc2oc3c(c2c1)CCCC3 | 10.6
O=c1[nH]c(CSc2nnc(Nc3ccccc3)s2)nc2ccccc12 | 3.83
COc1ccc(C(=O)NCC(=O)OCC(=O)NCCC2=CCCCC2)cc1 | 2.19
